In all, about 110,000 compounds went through this assay and about 230 (0.21%) showed an effect of 50% or more. The list shows a part of the results.
Biological target: DPAP1 (Plasmodium falciparum, UniProt Q8IIJ9)
Assay: primary screen, percent inhibition; read by cleavage of a fluorogenic dipeptide substrate; higher = more effect of the substance
Parameters: species or system P. falciparum D10 trophozoite lysates; single well
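Note: 30 min substrate incubation versus DMSO and 10 µM JCP410 controls.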

Chain of DPAP1 (Q8IIJ9 whole entry, looked up): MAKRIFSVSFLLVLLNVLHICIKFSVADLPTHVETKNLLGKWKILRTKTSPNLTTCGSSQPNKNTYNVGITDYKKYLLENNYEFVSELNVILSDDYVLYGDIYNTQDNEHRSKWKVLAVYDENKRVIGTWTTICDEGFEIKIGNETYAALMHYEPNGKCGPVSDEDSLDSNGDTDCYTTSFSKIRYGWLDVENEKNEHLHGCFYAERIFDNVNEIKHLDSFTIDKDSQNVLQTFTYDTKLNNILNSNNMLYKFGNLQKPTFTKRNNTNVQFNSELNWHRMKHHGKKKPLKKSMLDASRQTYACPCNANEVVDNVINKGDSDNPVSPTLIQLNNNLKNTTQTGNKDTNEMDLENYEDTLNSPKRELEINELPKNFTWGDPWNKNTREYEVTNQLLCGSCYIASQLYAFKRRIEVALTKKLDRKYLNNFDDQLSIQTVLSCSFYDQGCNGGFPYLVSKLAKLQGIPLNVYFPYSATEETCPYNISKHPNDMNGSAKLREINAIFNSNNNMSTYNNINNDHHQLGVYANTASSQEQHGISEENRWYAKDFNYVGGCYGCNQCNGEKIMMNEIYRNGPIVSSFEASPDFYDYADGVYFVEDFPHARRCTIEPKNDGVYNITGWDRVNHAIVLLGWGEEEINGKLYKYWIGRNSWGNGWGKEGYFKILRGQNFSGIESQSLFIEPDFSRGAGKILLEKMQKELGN

SMILES	% Inhibition @ 10 uM [%]
CC1CCCC(NC(=O)Nc2cccs2)C1C (centres unmarked)	-1.6
COc1ccc(S(=O)(=O)Nc2cc3oc4ccccc4c3cc2OC)cc1	-1.63
C=C(C)c1cccc(C(C)(C)NC(=O)N[C@@H](CC(C)C)C(=O)NCC#N)c1	-6.68
O=C(CN1CCN(CCO)CC1)Nc1ccc(Cl)cc1C(=O)c1ccccc1	-1.52
O=C1NN(c2ccccc2)C(=O)/C1=C\Nc1ccccc1	-4.16
COc1ccc(CN2CCN(Cc3cccc(OC)c3OC)CC2)cc1OC	-2.99
O=C(NCc1ccc2c(c1)OCO2)c1ccc2nc(-c3ccco3)c(-c3ccco3)nc2c1	11.2
O=C(Nc1sc2c(c1C(=O)NCCO)CCCC2)c1ccco1	-2.22
O=C1c2ccccc2C(=O)N1c1ccc(S(=O)(=O)N2CCOCC2)c2ccccc12	-5.49
COc1ccc(-c2nc3sc(-c4ccc(OC)cc4)nc3s2)cc1	44.4
OCCN(Cc1ccccc1)Cc1cccc(Cl)c1Cl	4.28
O=C(CN(c1ccccc1)S(=O)(=O)c1ccccc1)Nc1ccc(F)cc1	3.89
CN1C/C(=C/c2cccnc2)C(=O)/C(=C/c2cccnc2)C1	-5.51
CCOC(=O)c1c2c(n(C)c1C)C=C(Br)C(=O)C2=O	2.17
CCN(CC)CCCNC(=O)CN1C(=O)CSc2nc(C)cc(C)c21	2.65
CCC(C)NC(=O)CN1N=C(c2ccc(Cl)cc2)CCC1=O (centres unmarked)	-3.22
Cn1c(=O)c2c(nc(Cl)n2CCc2ccccc2)n(C)c1=O	-1.92
COc1cccc(N(CC(=O)Nc2cc(C)ccc2C)S(C)(=O)=O)c1	-9.04
COc1ccc(NC(=O)CN(Cc2ccccc2)S(C)(=O)=O)cc1Cl	2.49
CCc1ccc(CN2CCN(Cc3cc(Br)ccc3O)CC2)cc1	-3.41
COc1ccc(N(CC(=O)N(C)C)S(=O)(=O)c2ccccc2)cc1Cl	3.66
Cc1ccc(-c2nc(C3CCCCC3)no2)cc1	10.9
Cc1nn(C(=O)CCCC(=O)NC2CCCCC2)c2ccccc12	-4.94
O=C(NCC1CCCO1)c1cnn2c(C(F)(F)F)cc(-c3ccc(Br)cc3)nc12 (centres unmarked)	0.661
COc1cc(CN2CCN(C(=O)c3cccc(Cl)c3)CC2)cc(OC)c1OC	6.1
Cc1cccc2c1-c1sc(C(=O)NCCCN3CCCC(C)C3)cc1CO2 (centres unmarked)	-6.68

SMILES	% Inhibition @ 10 uM [%]
O=C(OCc1ccccc1)c1sc2ccccc2c1Cl	-4.15
c1ccc(CN2CCN(C3CN4CCC3CC4)CC2)cc1 (centres unmarked)	1.57
CCCC(=O)NCc1nc2ccccc2n1CC(=O)c1ccccc1	3.34
Cc1c(Cl)cccc1-c1ccc(C(=O)NCc2ccco2)o1	6.22
CCCOC(=O)c1ccc(-c2ccc(/C=C3/C(=O)NC(=O)C(C#N)=C3C)o2)cc1	-6.86
COc1ccc(-c2noc(CC(=O)N3CCN(C(=O)c4ccco4)CC3)n2)cc1	-0.256
Cc1nnc2c(SC3CCCCC3)nc3ccccc3n12	16
COc1ccc(CCn2cc3c(c2-c2ccccc2Cl)c(=O)n(C)c(=O)n3C)cc1OC	-4.95
Cc1ccc2nc(-c3ccc(N4C(=O)CC(N5CCCC(CO)C5)C4=O)cc3)sc2c1 (centres unmarked)	7.54
Cc1cc(NC(=O)C23CC4CC(CC(C4)C2)C3)nc2c1c(=O)oc1ccccc12	-6.29
OCCNc1ncc(-c2ccccc2)cn1	-0.636
CSc1nc(=S)n(-c2ccccc2)c(C)c1C(C)=O	-4.01
CC(=O)Nc1sc2c(c1C(c1cccc(Br)c1)N1CCOCC1)CCCC2 (centres unmarked)	-0.123
CCc1ccc(-c2cn3c(n2)sc2cc(C(=O)NCc4ccco4)ccc23)cc1	0.807
O=C(CCN(Cc1ccccc1)Cc1ccccc1)c1ccccc1	0.878
CCc1ccc(/C(O)=C/C=N/c2cccc(O)c2)cc1	2.18
O=C(COc1ccc(Cl)cc1)NC1C2CC3CC(C2)CC1C3 (centres unmarked)	-0.582
COC(=O)C1=CN(Cc2ccc(F)cc2)C=C(C(=O)OC)C1c1ccc(C)s1	-1.48
CCO/C=C1\C(=O)N(c2ccc(C)cc2)C(=O)c2ccccc21	5.24
Cc1ccc(OCCCOc2ccc(/C=C3\C(=N)N4N=C(S(C)(=O)=O)SC4=NC3=O)cc2)cc1	-1.54
COc1ccc2occ(CC(=O)Nc3nnc(SC)s3)c2c1	0.19
Nc1ccc(C(=O)NC2CCCCC2)cc1	3.56
COc1cc(CN2CCN(C)CC2)ccc1O	-2.56
O=C1CC(c2ccccc2)c2ccc(O)cc2O1 (centres unmarked)	-1.97
COc1nc(Cl)cc(C)c1C(=O)NCc1ccc(Cl)cc1	-3.72
CCOC(=O)c1c(NC(=O)Cc2coc3c(C)c(C)ccc23)sc(C)c1C	-0.671

SMILES	% Inhibition @ 10 uM [%]
Cc1ccnc(NC(=O)CN(C)S(=O)(=O)c2cccc3nsnc23)c1	-3.46
Clc1cccc(N2CCN(Cc3cccs3)CC2)c1	-0.192
CCN(CC)CCCCOc1ccc(Br)cc1	-5.84
Oc1ccc(Br)cc1CN1CCN(Cc2ccc3c(c2)OCO3)CC1	-5.26
COc1ccccc1Oc1ccc(S(=O)(=O)NCc2ccccn2)cc1	-4.39
O=C(O)CCCN1C(=O)C(c2ccccc2)Oc2cccnc21 (centres unmarked)	-1.97
COCc1[nH]nc2c1C(c1ccc(OCCN3CCOCC3)c(OC)c1)C(C#N)=C(N)O2 (centres unmarked)	0.674
Nc1nc2ccccc2n1C(=O)c1ccco1	0.778
O=C(NCc1ccc2c(c1)OCO2)C1CCN(S(=O)(=O)c2cccs2)CC1	5.1
COc1cccc(-c2nn(C)c3sc(C(=O)NCc4ccco4)cc23)c1	2.9
CCCOc1ccc(Cc2c(Cl)nc(SC)nc2NC)cc1	-2.87
O=C(Nc1ccc(Cc2ccc(NC(=O)C3CC3)cc2)cc1)C1CC1	0.316
COC(=O)c1sc(S(=O)(=O)N2CCCCC2)c(C(=O)OC)c1C	1.52
CCOC(=O)C1=C(C)OC(N)=C(C#N)C1c1cc(OCC)ccc1OCC (centres unmarked)	-6.25
CCOc1ccc(-n2c(C)c(C(C)=O)c3cc(OC)ccc32)cc1	-4.03
Cc1cccc(CNC(=O)CCc2ccc(-n3cnc4cccnc43)cc2)c1	-7.88
CC(NC(=O)C1CCC(CNS(=O)(=O)c2ccccc2)CC1)c1ccccc1 (centres unmarked)	5.47
Cc1ccc(NS(=O)(=O)c2ccc(N)cc2)cc1C	-3.97
COc1cc(OC)cc(C(=O)N2CCN(Cc3ccc(C)cc3)CC2)c1	-4.59
COc1ccc(C2CC(=O)CC(=O)C2)cc1	-8.7
Cc1cc(-c2ccc(C)c(S(=O)(=O)N(Cc3ccc(F)cc3)Cc3cccnc3)c2)on1	4.87
CC(=O)c1cccc(NC(=O)C23CC4CC(C2)CC(n2cncn2)(C4)C3)c1	-10.6
N#C/C(=C/c1ccc2c(c1)OCO2)c1ccc(Cl)cc1	2.05
O=C(O)c1cccc([N+](=O)[O-])c1C(=O)Nc1cccc(O)c1	-6.83
CC(C)Cn1nnc2sc3c(c2c1=O)CCC(C(C)(C)C)C3 (centres unmarked)	0.758
COc1nnc(-c2ccc(C)c(S(=O)(=O)NCc3ccccc3)c2)c2ccccc12	5.75

SMILES	% Inhibition @ 10 uM [%]
C=CCN1C(=O)N/C(=C/c2cc(Cl)c(OC)c(Cl)c2)C1=O	-4.14
O=[N+]([O-])c1ccccc1CNC1CCCCCC1	-3.32
O=S(=O)(NCCSc1ccc(Cl)cc1)c1ccc2c(c1)OCCO2	-3.92
CC1CCCC(NCCCn2ccnc2)C1 (centres unmarked)	4.75
Fc1ccc(-c2nnc(-c3ccc(Cl)cc3)o2)cc1	0.815
CCCCn1c(CN2CC(C)OC(C)C2)nc2c1c(=O)[nH]c(=O)n2C (centres unmarked)	-2.92
Cn1c(OCc2ccc3c(c2)OCO3)nc2c1c(=O)n(Cc1ccccc1F)c(=O)n2C	25.6
O=C(CN(C1CCCCC1)S(=O)(=O)c1ccc(Cl)cc1)N1CCCCC1	-3.85
CC(=O)c1cnn(-c2cc(Oc3cccc(C)c3)ncn2)c1C	-5.34
Cc1cc(-c2ccc(C)c(S(=O)(=O)N(C)C3CCCCC3)c2)on1	2.35
Cc1cccc(C)c1NC(=O)c1ccc(F)cc1	-7.5
CCOC(=O)C1=C(CN2CCC(c3ccccc3)C2)NC(=O)NC1c1ccccc1 (centres unmarked)	2.12
CCC(C)Nc1nc2c(-c3ccc(Cl)cc3)nnn2c2ccccc12 (centres unmarked)	-1.21
Cc1c(C(=O)NCCCN2CCCCCC2)oc2ccc3nc(N(C)C)sc3c12	11.8
O=C(O)c1cccc(N2C(=O)/C(=C\c3ccc(Cl)cc3)SC2=S)c1	2.26
O=S(=O)(Nc1ccc2c(c1)OCCO2)c1cccc(Cl)c1	-3.87
O=C(NCCOc1ccccc1)c1cc(S(=O)(=O)N2CCOCC2)ccc1F	3.47
Cc1ccc(OCC(=O)Nc2ccc(Cl)c(NC(=O)c3ccccc3)c2)cc1	9.94
O=C(NC1(C(=O)NC2CCCC2)CCCCC1)c1ccccc1	-4.43
CCN(CC)C(=O)C1c2cc(OC)c(OC)cc2C(=O)N(C)C1c1ccc(OC)c(OC)c1 (centres unmarked)	2.06
CCOC(=O)C1CCCN(Cc2ccccc2F)C1 (centres unmarked)	-1.77
CC(C)C[C@H](NC(=O)c1ccc(-c2ccccc2Cl)cc1Cl)C(=O)NCC#N	-5.2
CCOC(=O)c1c(C)c(-c2ccccc2)n(CC(=O)N2CCN(CC)CC2)c1C	1.51
